# From publication PMC6322271
# Sequences of proteins named here, by UniProt entry; tags and fusion partners are left off.
# UniProt P63279: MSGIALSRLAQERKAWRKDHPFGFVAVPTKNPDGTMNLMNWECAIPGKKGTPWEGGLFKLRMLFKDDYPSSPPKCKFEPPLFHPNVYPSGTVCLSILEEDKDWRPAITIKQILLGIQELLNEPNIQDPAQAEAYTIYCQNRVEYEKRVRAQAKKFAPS
# UniProt Q13547: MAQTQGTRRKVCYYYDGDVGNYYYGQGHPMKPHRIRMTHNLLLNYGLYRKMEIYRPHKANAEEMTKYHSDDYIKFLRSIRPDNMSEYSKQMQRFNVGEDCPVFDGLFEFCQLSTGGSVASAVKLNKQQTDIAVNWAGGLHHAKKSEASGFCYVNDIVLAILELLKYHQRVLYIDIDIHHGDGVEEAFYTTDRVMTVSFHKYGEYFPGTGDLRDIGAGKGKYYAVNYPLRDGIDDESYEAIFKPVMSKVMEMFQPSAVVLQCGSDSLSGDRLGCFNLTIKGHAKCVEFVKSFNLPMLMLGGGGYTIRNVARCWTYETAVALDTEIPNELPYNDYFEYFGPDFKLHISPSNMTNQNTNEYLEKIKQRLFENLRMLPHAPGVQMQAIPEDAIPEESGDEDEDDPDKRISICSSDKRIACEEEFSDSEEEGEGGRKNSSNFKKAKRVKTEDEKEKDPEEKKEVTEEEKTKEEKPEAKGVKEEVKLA
# UniProt Q92769: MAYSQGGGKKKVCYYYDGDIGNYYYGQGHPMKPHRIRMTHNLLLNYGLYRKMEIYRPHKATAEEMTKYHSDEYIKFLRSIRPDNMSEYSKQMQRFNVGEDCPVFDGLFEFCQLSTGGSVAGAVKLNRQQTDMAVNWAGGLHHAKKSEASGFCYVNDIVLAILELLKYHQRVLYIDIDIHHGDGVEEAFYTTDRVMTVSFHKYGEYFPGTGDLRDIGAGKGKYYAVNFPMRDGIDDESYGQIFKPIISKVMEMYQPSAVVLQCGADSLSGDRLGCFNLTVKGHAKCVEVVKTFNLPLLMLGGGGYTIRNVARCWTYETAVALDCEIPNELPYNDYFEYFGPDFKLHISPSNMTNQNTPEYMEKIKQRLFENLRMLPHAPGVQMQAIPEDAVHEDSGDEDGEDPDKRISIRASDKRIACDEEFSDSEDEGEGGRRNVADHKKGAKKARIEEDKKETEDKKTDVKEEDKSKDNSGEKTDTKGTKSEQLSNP
# No constants are given. Whether binding was seen depends on the method and setting. Binding seen in cells or lysates may run through a third protein. Some binding calls cover weakened binding; strength is not graded here. For part of these data: Where a sequence is shown, tags or fusion partners need not be part of it.
# What was measured:
# [1] = target: T1, wild-type Slug (Slug-overexpressing HEK293 cells) (human) (UniProt O43623); experiment: co-IP; nuclear fractions (hypotonic buffer) of Slug- and Slug5M-overexpressing HEK293 cells; immunoprecipitation with an anti-Slug antibody, immunoblotting
# T1 sequence: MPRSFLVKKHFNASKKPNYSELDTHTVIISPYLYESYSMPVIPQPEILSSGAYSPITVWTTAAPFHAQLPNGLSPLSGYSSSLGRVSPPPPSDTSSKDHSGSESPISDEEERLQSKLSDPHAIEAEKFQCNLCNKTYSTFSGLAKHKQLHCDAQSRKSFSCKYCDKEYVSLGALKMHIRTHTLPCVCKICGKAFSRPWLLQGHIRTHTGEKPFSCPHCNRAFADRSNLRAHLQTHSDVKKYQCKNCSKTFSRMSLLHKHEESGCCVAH
# [2] = target: T2, Slug5M (Slug5M-overexpressing HEK293 cells) (human) (UniProt O43623); experiment: as above
# T2 sequence: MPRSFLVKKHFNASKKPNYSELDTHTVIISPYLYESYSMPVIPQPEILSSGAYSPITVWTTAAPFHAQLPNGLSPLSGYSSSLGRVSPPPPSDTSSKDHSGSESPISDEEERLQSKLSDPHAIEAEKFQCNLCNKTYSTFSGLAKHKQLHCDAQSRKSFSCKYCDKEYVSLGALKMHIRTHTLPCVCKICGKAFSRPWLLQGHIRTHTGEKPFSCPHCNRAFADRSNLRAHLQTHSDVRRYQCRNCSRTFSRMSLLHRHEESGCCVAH
# [3] = target: T3, Slug (transfected in HEK293T, Fig. 1b and c) (human) (UniProt O43623); experiment: co-IP; exogenous immunoprecipitation from lysates of HEK293T cells transfected with the indicated plasmids (Fig. 1b, c); RIPA lysis buffer; also under normoxia or hypoxia (1% O2, 4 h; Fig. S10a, anti-Flag)
# T3 sequence: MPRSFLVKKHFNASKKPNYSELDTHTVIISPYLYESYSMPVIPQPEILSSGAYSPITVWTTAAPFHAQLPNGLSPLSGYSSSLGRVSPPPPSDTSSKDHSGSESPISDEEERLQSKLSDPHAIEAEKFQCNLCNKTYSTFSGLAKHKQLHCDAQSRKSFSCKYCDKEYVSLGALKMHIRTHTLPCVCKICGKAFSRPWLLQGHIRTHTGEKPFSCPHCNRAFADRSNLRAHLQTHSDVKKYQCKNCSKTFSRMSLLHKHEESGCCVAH
# [4] = target: T4, Slug (endogenous, CL1–5 cells) (human (endogenous in CL1–5)) (UniProt O43623); experiment: co-IP; endogenous immunoprecipitation; CL1–5 cell lysate treated with 1% formaldehyde; cross-linked Slug complexes immunoblotted
# T4 sequence: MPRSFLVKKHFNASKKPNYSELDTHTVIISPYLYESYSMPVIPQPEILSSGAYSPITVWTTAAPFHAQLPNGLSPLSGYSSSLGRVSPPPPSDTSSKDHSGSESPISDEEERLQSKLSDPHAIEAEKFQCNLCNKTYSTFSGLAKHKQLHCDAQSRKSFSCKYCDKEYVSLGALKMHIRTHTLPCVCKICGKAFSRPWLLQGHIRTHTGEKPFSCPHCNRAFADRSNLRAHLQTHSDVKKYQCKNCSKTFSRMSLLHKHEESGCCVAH
# [5] = target: T5, 3xFlag–Slug 1–268 (human) (UniProt O43623); experiment: co-IP; cytosolic and chromatin-bound fractions of HEK293T cells co-expressing 3xFlag-labelled Slug and HA–Ubc9; immunoprecipitated with anti-Flag antibodies
# T5 sequence: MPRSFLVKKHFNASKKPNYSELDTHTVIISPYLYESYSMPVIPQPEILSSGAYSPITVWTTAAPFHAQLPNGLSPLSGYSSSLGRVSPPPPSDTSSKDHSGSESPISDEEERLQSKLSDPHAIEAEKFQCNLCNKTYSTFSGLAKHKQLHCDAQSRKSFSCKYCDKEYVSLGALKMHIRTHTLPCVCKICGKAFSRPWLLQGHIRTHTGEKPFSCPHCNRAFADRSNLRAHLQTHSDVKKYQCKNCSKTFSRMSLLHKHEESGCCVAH
# [6] = target: T6, Slug5M (Fig. 4e, HEK293T) (human) (UniProt O43623); experiment: co-IP; lysates of HEK293T cells cotransfected with the indicated plasmids (with or without Ubc9 and SUMO-1); immunoprecipitation with an anti-HA antibody
# T6 sequence: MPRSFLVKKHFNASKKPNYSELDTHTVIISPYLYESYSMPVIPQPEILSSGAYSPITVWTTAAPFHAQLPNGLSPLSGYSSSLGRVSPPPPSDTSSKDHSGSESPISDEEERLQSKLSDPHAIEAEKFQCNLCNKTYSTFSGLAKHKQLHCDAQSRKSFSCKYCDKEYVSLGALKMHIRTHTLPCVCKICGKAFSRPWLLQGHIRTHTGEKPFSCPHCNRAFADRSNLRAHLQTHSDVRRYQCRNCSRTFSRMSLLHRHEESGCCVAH
# [7] = target: T7, wild-type Slug (Fig. 4e, HEK293T) (human) (UniProt O43623); experiment: as above
# T7 sequence: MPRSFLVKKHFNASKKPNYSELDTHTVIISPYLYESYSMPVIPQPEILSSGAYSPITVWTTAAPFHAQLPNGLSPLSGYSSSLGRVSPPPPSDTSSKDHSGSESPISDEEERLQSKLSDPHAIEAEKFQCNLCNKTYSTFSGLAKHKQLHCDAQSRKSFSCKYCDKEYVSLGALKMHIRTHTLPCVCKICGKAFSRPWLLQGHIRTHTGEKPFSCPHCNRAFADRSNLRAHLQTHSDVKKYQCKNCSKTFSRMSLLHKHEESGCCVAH
# [8] = target: T8, 3xFlag–Slug 130–268 (human) (UniProt O43623); experiment: co-IP; HEK293T cells co-transfected; immunoprecipitation with anti-Flag antibodies, immunoblotting; RIPA lysis buffer; in Fig. 5f and S10b cells under normoxia or hypoxia (1% O2, 4 h)
# T8 sequence: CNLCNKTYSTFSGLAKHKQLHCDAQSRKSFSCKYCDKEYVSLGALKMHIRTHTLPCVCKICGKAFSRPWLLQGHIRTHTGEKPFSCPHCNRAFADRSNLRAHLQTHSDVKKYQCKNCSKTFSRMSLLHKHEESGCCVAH
# [9] = target: T9, 3xFlag–Slug 67–268 (human) (UniProt O43623); experiment: as above
# T9 sequence: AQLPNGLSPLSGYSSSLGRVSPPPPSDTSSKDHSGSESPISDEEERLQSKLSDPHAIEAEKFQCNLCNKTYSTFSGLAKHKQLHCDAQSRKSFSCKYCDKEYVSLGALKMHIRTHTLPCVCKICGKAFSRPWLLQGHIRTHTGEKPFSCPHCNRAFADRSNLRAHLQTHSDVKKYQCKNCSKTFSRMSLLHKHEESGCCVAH
# [10] = target: T5, 3xFlag–Slug 1–268 (human); experiment: as above
# [11] = target: T10, 3xFlag–Slug 33–268 (human) (UniProt O43623); experiment: as above
# T10 sequence: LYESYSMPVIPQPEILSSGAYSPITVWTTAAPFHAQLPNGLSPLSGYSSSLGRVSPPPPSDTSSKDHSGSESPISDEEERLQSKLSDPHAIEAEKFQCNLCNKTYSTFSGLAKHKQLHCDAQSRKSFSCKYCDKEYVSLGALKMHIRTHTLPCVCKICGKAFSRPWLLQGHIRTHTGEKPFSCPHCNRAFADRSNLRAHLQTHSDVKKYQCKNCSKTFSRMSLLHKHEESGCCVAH
# [12] = target: T11, 3xFlag–Slug 1–129 (human) (UniProt O43623); experiment: as above
# T11 sequence: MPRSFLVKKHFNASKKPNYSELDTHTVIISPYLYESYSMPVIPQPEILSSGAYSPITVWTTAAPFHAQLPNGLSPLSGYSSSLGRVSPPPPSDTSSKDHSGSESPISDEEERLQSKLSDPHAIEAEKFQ
# GST–Ubc9 = GST–Ubc9 (UniProt P63279); experiment: pull-down; GST–Ubc9 from bacteria coupled to beads, incubated with in vitro-translated Slug fragments; washed with buffer D (20 mM HEPES pH 8.0, 20% glycerol, 0.2 mM EDTA, 100 mM KCl, 0.5 mM PMSF, 0.5 mM DTT); only the target purified
# GST–Slug (human) = target: T12, GST–Slug (human) (UniProt O43623); experiment: pull-down; GST–Slug or GST from bacteria on beads, incubated with in vitro-translated HA-tagged PIAS proteins; anti-HA immunoblot; for PIASy also in the presence or absence of Ubc9 (Fig. 3d); only the target purified
# T12 sequence: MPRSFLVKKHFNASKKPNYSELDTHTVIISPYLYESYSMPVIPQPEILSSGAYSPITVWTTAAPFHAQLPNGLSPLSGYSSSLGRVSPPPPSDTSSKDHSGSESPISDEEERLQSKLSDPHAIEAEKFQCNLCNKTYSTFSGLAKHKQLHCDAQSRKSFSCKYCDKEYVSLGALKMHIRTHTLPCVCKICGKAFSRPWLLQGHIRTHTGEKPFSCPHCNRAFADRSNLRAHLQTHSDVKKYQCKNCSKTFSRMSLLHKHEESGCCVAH
molecule,measurement,setting,value
"HDAC1 (endogenous, HEK293) (from UniProt Q13547 1-482)",binding,[1],binds
same,binding,[2],binds
"Ubc9 (transfected in HEK293T, Fig. 1b and c) (from UniProt P63279 1-158)",binding,[3],binds
"Ubc9 (endogenous, CL1–5 cells) (from UniProt P63279 1-158)",binding,[4],binds
HA–Ubc9 (HEK293T) (from UniProt P63279 1-158),binding,[5],binds
"HDAC1 (Fig. 4e, HEK293T) (from UniProt Q13547 1-482)",binding,[6],binds
same,binding,[7],binds
"HDAC2 (endogenous, HEK293) (from UniProt Q92769 1-488)",binding,[1],binds
same,binding,[2],binds
"HA–PIASy (HEK293T) (protein, UniProt Q8N2W9 1-510) MAAELVEAKNMVMSFRVSDLQMLLGFVGRSKSGLKHELVTRALQLVQFDCSPELFKKIKELYETRYAKKNSEPAPQPHRPLDPLTMHSTYDRAGAVPRTPLAGPNIDYPVLYGKYLNGLGRLPAKTLKPEVRLVKLPFFNMLDELLKPTELVPQNNEKLQESPCIFALTPRQVELIRNSRELQPGVKAVQVVLRICYSDTSCPQEDQYPPNIAVKVNHSYCSVPGYYPSNKPGVEPKRPCRPINLTHLMYLSSATNRITVTWGNYGKSYSVALYLVRQLTSSELLQRLKTIGVKHPELCKALVKEKLRLDPDSEIATTGVRVSLICPLVKMRLSVPCRAETCAHLQCFDAVFYLQMNEKKPTWMCPVCDKPAPYDQLIIDGLLSKILSECEDADEIEYLVDGSWCPIRAEKERSCSPQGAILVLGPSDANGLLPAPSVNGSGALGSTGGGGPVGSMENGKPGADVVDLTLDSSSSSEDEEEEEEEEEDEDEEGPRPKRRCPFQKGLVPAC",binding,[8],no binding
same,binding,[9],binds
same,binding,[10],binds
same,binding,[11],binds
same,binding,[12],binds
"Slug 1–268 (full-length), in vitro translated (protein, UniProt O43623 1-268) MPRSFLVKKHFNASKKPNYSELDTHTVIISPYLYESYSMPVIPQPEILSSGAYSPITVWTTAAPFHAQLPNGLSPLSGYSSSLGRVSPPPPSDTSSKDHSGSESPISDEEERLQSKLSDPHAIEAEKFQCNLCNKTYSTFSGLAKHKQLHCDAQSRKSFSCKYCDKEYVSLGALKMHIRTHTLPCVCKICGKAFSRPWLLQGHIRTHTGEKPFSCPHCNRAFADRSNLRAHLQTHSDVKKYQCKNCSKTFSRMSLLHKHEESGCCVAH",binding,GST–Ubc9,binds
"Slug 33–268, in vitro translated (domain or fragment, UniProt O43623 33-268) LYESYSMPVIPQPEILSSGAYSPITVWTTAAPFHAQLPNGLSPLSGYSSSLGRVSPPPPSDTSSKDHSGSESPISDEEERLQSKLSDPHAIEAEKFQCNLCNKTYSTFSGLAKHKQLHCDAQSRKSFSCKYCDKEYVSLGALKMHIRTHTLPCVCKICGKAFSRPWLLQGHIRTHTGEKPFSCPHCNRAFADRSNLRAHLQTHSDVKKYQCKNCSKTFSRMSLLHKHEESGCCVAH",binding,GST–Ubc9,binds
"Slug 130–268, in vitro translated (domain or fragment, UniProt O43623 130-268) CNLCNKTYSTFSGLAKHKQLHCDAQSRKSFSCKYCDKEYVSLGALKMHIRTHTLPCVCKICGKAFSRPWLLQGHIRTHTGEKPFSCPHCNRAFADRSNLRAHLQTHSDVKKYQCKNCSKTFSRMSLLHKHEESGCCVAH",binding,GST–Ubc9,binds
"Slug 130–212, in vitro translated (domain or fragment, UniProt O43623 130-212) CNLCNKTYSTFSGLAKHKQLHCDAQSRKSFSCKYCDKEYVSLGALKMHIRTHTLPCVCKICGKAFSRPWLLQGHIRTHTGEKP",binding,GST–Ubc9,binds
"HA-tagged PIASy, in vitro translated (protein, UniProt Q8N2W9 1-510) MAAELVEAKNMVMSFRVSDLQMLLGFVGRSKSGLKHELVTRALQLVQFDCSPELFKKIKELYETRYAKKNSEPAPQPHRPLDPLTMHSTYDRAGAVPRTPLAGPNIDYPVLYGKYLNGLGRLPAKTLKPEVRLVKLPFFNMLDELLKPTELVPQNNEKLQESPCIFALTPRQVELIRNSRELQPGVKAVQVVLRICYSDTSCPQEDQYPPNIAVKVNHSYCSVPGYYPSNKPGVEPKRPCRPINLTHLMYLSSATNRITVTWGNYGKSYSVALYLVRQLTSSELLQRLKTIGVKHPELCKALVKEKLRLDPDSEIATTGVRVSLICPLVKMRLSVPCRAETCAHLQCFDAVFYLQMNEKKPTWMCPVCDKPAPYDQLIIDGLLSKILSECEDADEIEYLVDGSWCPIRAEKERSCSPQGAILVLGPSDANGLLPAPSVNGSGALGSTGGGGPVGSMENGKPGADVVDLTLDSSSSSEDEEEEEEEEEDEDEEGPRPKRRCPFQKGLVPAC",binding,GST–Slug (human),binds
"Slug 1–129, in vitro translated (domain or fragment, UniProt O43623 1-129) MPRSFLVKKHFNASKKPNYSELDTHTVIISPYLYESYSMPVIPQPEILSSGAYSPITVWTTAAPFHAQLPNGLSPLSGYSSSLGRVSPPPPSDTSSKDHSGSESPISDEEERLQSKLSDPHAIEAEKFQ",binding,GST–Ubc9,no binding
"Slug 213–268, in vitro translated (domain or fragment, UniProt O43623 213-268) FSCPHCNRAFADRSNLRAHLQTHSDVKKYQCKNCSKTFSRMSLLHKHEESGCCVAH",binding,GST–Ubc9,no binding
